Reference: PubChem BioAssay AID652104 (National Center for Advancing Translational Sciences (NCATS), 2013)
The campaign covered roughly 410,000 compounds. About 7,200 (1.8%) were called active. Inconclusive means that the source gave no clear call. Such entries were picked first, then a sample of the others. Calls come from the whole dose curve; as a rule, active = well fitted activation curve with a large enough effect; inconclusive = small, poorly fitted or top-dose-only effect, or another doubt; inactive = no such curve, though single readings can be large or run the other way. No potency is given beside an inconclusive call; the fits are too rough.

Assay: qHTS of TDP-43 Inhibitors; note: nearly all actives have a fitted effect of over 50% in size; for growth rescue (activation): % of control where 0% means no effect
Conditions: TDP-43 expressing yeast growth rescue, BacTiter-Glo, 24 h; growth rescue (activation): at 46.1 µM (top of the series) unless noted
How it was run: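 Galactose-induced TDP-43 yeast, OD600=0.02, compound pinned; 24 hr, 30 deg C; BacTiter-Glo luminescence for growth. Inhibitors of TDP-43 toxicity read as activators.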
Potency is the fitted concentration of half-maximal effect; tags give direction and shape of the fitted curve.

| Structure (SMILES) | Potency | growth rescue (activation) |
| --- | --- | --- |
| CCOc1ccc(-c2cn(-c3ccc(OC)cc3)c(SC)n2)cc1 | active: 12.6 µM | – |
| COC(=O)c1sc(N2C(=O)C(=O)/C(=C(/O)c3ccccc3)C2c2ccco2)nc1C (centres undefined) | inconclusive [activator, partial curve] | – |
| CCc1noc(-c2ccc(N3CCC(C)CC3)c([N+](=O)[O-])c2)n1 | – | inactive: 18.6% |
| COc1ccc(-c2nc3ccccc3n2Cc2ccc(C(C)C)cc2)cc1 | active: 22.4 µM | – |
| COC(=O)C1(C(=O)OC)C[C@H](/C=C/c2ccccc2)N(Cc2ccccc2OC)[C@@H]1c1cccc(Br)c1 | inconclusive [activator, partial curve] | – |
| COc1ccc(CNC(=O)COC(=O)CCCOc2ccc(Cl)cc2Cl)cc1 | inconclusive [activator, single point] | – |
| CCOc1ccc2nc3c(cc2c1)CN(CCOC)C(=NCCOC)S3 | – | inconclusive: 33.9% [activator] |
| Cc1cccn2c(=O)c3cc(C(=O)NC(C)C)n(C)c3nc12 | inconclusive [activator, partial curve] | – |
| O=C(Nc1ccc2nc(SCCOc3ccccc3)sc2c1)c1ccco1 | – | inactive: -2.18% |
| Cc1cc(C)n2nc(CNS(=O)(=O)c3ccc(CC(C)C)cc3)nc2n1 | – | inactive: 10.2% |
| O=C(NC1CCSc2ccccc21)c1ccc(F)cc1 (centres undefined) | inconclusive [activator, single point] | – |
| COCCNc1nc2nonc2nc1N(C)Cc1ccc(C)cc1 | inconclusive [activator, single point] | – |
| O=C(c1cc(COc2cccc(C(F)(F)F)c2)on1)N1C[C@@H]2CCC[C@H]1C2 | inconclusive [activator, partial curve] | – |
| COCCNC(=O)CSc1nc2ccc(N3CCOCC3)cc2c(=O)n1CCc1ccccc1 | inconclusive [activator, partial curve, poor fit] | – |
| Cc1ccc(NC(=O)c2ccc(S(=O)(=O)N3CCC(C)CC3)cc2)nc1 | inconclusive [activator, single point] | – |
| CCC(=O)N(c1nnc(SCC(=O)Nc2ccccc2Cl)s1)C1CC1 | inconclusive [activator, partial curve] | – |
| COc1ccccc1NC(=S)N/N=C/c1cccc(C)c1 | inconclusive [activator, partial curve] | – |
| O=c1oc(-c2ccccc2NS(=O)(=O)c2ccc(Cl)cc2)nc2ccccc12 | inconclusive [activator, single point] | – |
| O=C(CCCCCn1c(=O)[nH]c2ccccc2c1=O)NCCc1ccccc1 | – | inactive: -1.69% |
| Cc1ccc(-n2ncc(C(=O)NCCc3ccsc3)c2C2CCN(C(=O)OC(C)(C)C)CC2)c(C)c1 | inconclusive [activator, single point] | – |
| COc1cc(/C=N/Nc2cccc(C)c2)cc(Br)c1O | inconclusive [activator, single point] | – |
| COC(=O)c1cccc(Nc2c(-c3ccc(SC)cc3)nc3nc[nH]n23)c1 | – | inactive: 19.7% |
| C=C(C)COc1ccc(-c2n[nH]c(C)c2-c2ccccc2OC)c(O)c1 | inconclusive [activator, single point] | – |

| Structure (SMILES) | Potency | growth rescue (activation) |
| --- | --- | --- |
| COc1ccc(Cl)cc1NC(=O)C(OC)c1ccccc1 (centres undefined) | inconclusive [activator, partial curve] | – |
| Nc1nc(-c2ccc(Br)cc2)cs1 | inconclusive [activator, single point] | – |
| CCCCOCCCNC(=O)C[C@@H]1C[C@@]2(C(=O)OCC)CCC=C2N(Cc2cccc3ccccc23)C1=O | inconclusive [activator, single point] | – |
| Cc1ccc(NC(=O)c2ccc(COc3ccccc3)o2)nc1 | inconclusive [activator, partial curve] | – |
| O=C(Nc1ccccc1C(=O)Nc1ccc(Br)cn1)c1ccccc1Cl | active: 20 µM | – |
| Cc1cccc(N2CCN(C(=O)COc3ccc4ccc(=O)oc4c3)CC2)c1C | inconclusive [activator, partial curve] | – |
| Cc1cc(C=O)c(C)n1-c1ccc(NC2CCCCC2)c([N+](=O)[O-])c1 | active: 35.5 µM | – |
| N#CCC(=O)N/N=C/c1coc2ccccc2c1=O | inconclusive [activator, single point] | – |
| COc1cccc(C(=O)N(Cc2ccc(N(C)C)cc2)Cc2ccco2)c1 | – | inactive: 17.9% |
| COc1ccc(C(=O)N2CCN(c3cccc(Cl)c3)CC2)c(OC)c1 | inconclusive [activator, partial curve] | – |
| N=C1C=CC(=C(c2ccc(N)cc2)c2ccc(N)cc2)C=C1 | – | inactive: -52.8% |
| CN(C)c1ccc(C(=O)C(=O)N2CCN(c3ccccc3)CC2)cc1 | – | inactive: 0% |
| Cn1nc([N+](=O)[O-])nc1S(C)(=O)=O | – | inactive: 20.2% |
| O=C(CSc1nnnn1-c1ccc2c(c1)OCCO2)N1CCN(C(=O)c2ccco2)CC1 | inconclusive [activator, single point] | – |
| COCCn1cnc2c1c(=O)n(Cc1ccc(Br)cc1)c(=O)n2Cc1ccccc1 | inconclusive [activator, single point] | – |
| Cc1cc(C)cc(Nc2ncc3c(n2)CCCC3=O)c1 | inconclusive [activator, single point] | – |
| CCOc1ccccc1C(=O)NCC(=O)NCCCc1ccccc1 | inconclusive [activator, single point] | – |
| O=S(=O)(N/N=C\c1ccc(-c2ccccc2Cl)o1)c1ccccc1 | inconclusive [activator, partial curve] | – |
| CCOc1ccccc1OCCCC(=O)N1CCN(S(=O)(=O)c2ccc(C)cc2C)CC1 | inconclusive [activator, single point] | – |
| CN(C(=O)c1cccc(NC(=O)Cc2ccc(NC(=O)C3CCN(S(=O)(=O)c4cccc([N+](=O)[O-])c4)CC3)cc2)c1)C1CCC1 | inconclusive [activator, full curve] | – |
| Cc1ccc(C)c(S(=O)(=O)N2CCCN(C)CC2)c1 | – | inactive: -24.3% |
| COc1cc(/C=C(\C#N)C(=O)NC(C)C)cc(Cl)c1O | inconclusive [activator, partial curve] | – |
| COc1cc(OC)cc(C(=O)Nc2nnc(-c3cccnc3)o2)c1 | inconclusive [activator, partial curve] | – |

| Structure (SMILES) | Potency | growth rescue (activation) |
| --- | --- | --- |
| CCc1nnc(NC(=O)c2cc3ccccc3oc2=O)s1 | inconclusive [activator, partial curve, poor fit] | – |
| Cc1coc(C)c1C(=O)Nc1ccc2ccccc2c1 | inconclusive [activator, single point] | – |
| CCOC(=O)c1ccccc1NC(=S)N1CC(C)CC(C)C1 (centres undefined) | – | inactive: -3.5% |
| CN(Cc1ccccc1)C(=O)C(=O)Nc1ccc2nc3n(c(=O)c2c1)CCCCC3 | inconclusive [activator, partial curve, poor fit] | – |
| COc1cccc(C(=O)Nc2nc3c(s2)CCCC3)c1 | inconclusive [activator, single point] | – |
| Cc1ccc(CNC(=O)c2cc3cc(C)ccc3n2C)cc1 | inconclusive [activator, partial curve] | – |
| CCOC(=O)N1CCN(C(=O)CSc2nnc(-c3ccc(C)c(C)c3)o2)CC1 | inconclusive [activator, partial curve] | – |
| Cn1nc(C(=O)Nc2cccc(C(F)(F)F)c2)c2ccccc2c1=O | active: 11.2 µM | – |
| Cc1ccc2nc(-c3ccc(C#N)cc3)c(Cc3ccccc3C(F)(F)F)n2c1 | inconclusive [activator, partial curve] | – |
| O=C(CC1Sc2ncnn2C1=O)Nc1ccc(Br)cc1 (centres undefined) | inconclusive [activator, single point] | – |
| COc1ccc(OC)c(NC(=O)C2(C)CCN2C(=O)CCC2CCCC2)c1 (centres undefined) | inconclusive [activator, partial curve] | – |
| CCCCN1C[C@H](c2ccc(OC)cc2)[C@@H](CC(=O)Nc2ccc(Br)cc2)C1=O | – | inactive: 14.5% |
| O=C(O)CCCCc1nc2ccccc2s1 | inconclusive [activator, single point] | – |
| O=C(CSCc1ccccc1)Nc1ccc(F)cc1F | inconclusive [activator, partial curve] | – |
| COc1ccc(OC)c(C=C2CCc3ccccc3C2=O)c1 | inconclusive [activator, partial curve, poor fit] | – |
| O=C(/C=C/c1ccc(Br)cc1)N1CCN(c2cccc(C(F)(F)F)c2)CC1 | inconclusive [activator, single point] | – |
| Cc1cccc(CN2CCN(C3CN(Cc4cn(Cc5ccc(Cl)cc5)nn4)S(=O)(=O)C3)CC2)c1 (centres undefined) | – | inactive: 14.7% |
| CCCCN1C(=O)C(CC(=O)NCCCCc2ccccc2)CC(C(=O)N(C(C)C)C(C)C)=C1C (centres undefined) | inconclusive [activator, full curve] | – |
| CN1C(=O)/C(=N\OC(=O)c2ccccc2Cl)c2ccccc21 | active: 17.8 µM | – |
| O=C(/C=C/c1ccc(Cl)cc1Cl)c1nc2ccccc2[nH]1 | active: 11.2 µM | – |
| CC(C)(C)c1ccc(Oc2ccc(N)cc2)cc1 | active: 35.5 µM | – |
| Cn1c2ccccc2c2cc(/C=N/NC(=O)c3ccc(N)cc3)ccc21 | inconclusive [activator, single point] | – |
| CC1CCCCN1Cc1c(O)ccc2c(=O)c(-c3cccc(Cl)c3)c(C(F)(F)F)oc12 (centres undefined) | – | inactive: -6.15% |
